According to PubChem BioAssay AID463173 (ICCB-Longwood Screening Facility, Harvard Medical School, 2010):
Out of some 52,000 compounds screened, about 1,700 (3.3%) were called active. No stated cut-off is given here; in the data, active means survival mostly below about 52% (no sharp cut-off); inactive means mostly above about 56%. The list shows a part of the results.

Each molecule was assayed on Wild type (assay: S. aureus survival, RN4220 and DeltatarO strains – OD600, teichoic acid synthesis inhibitors, primary screen (AID 463173)). Details: S. aureus RN4220 wild type/DeltatarO growth, OD600, 18 h, stronger effect = lower value, screened at 18.75 µg/mL (by protocol).

Structure (SMILES)	survival
Cc1cc(C)cc(NS(=O)(=O)c2ccc(-c3cc(C)no3)s2)c1	inactive: 69%
COc1ccc(NC(=O)c2cc3c(=O)n(Cc4cccs4)ccc3nc2C)c(OC)c1	inactive: 83%
Cc1c(C(=O)N(C)C)sc2c1c(=O)n(-c1ccccc1C(F)(F)F)c(=O)n2Cc1ccccc1C#N	inactive: 66%
Cc1ccc(-c2nc3cc(Cl)ccc3o2)cc1NC(=O)c1cc2ccccc2o1	inactive: 72%
COc1ccc(-c2nsc(NC(=O)COc3ccccc3OC)n2)cc1	inactive: 98%
CC(C)Cc1nn2c(=O)cc(COC(=O)c3cccc(NC(=O)c4cccs4)c3)nc2s1	inactive: 72%
COc1ccccc1CNC(=O)CCCn1c(=O)c2ccccc2n(CC(=O)Nc2ccc(C)cc2Cl)c1=O	inactive: 101%
Cc1ccccc1Cn1c(=O)n(CC2CCC(C(=O)N3CCC(C)CC3)CC2)c(=O)c2sccc21 (stereo unspecified)	inactive: 72%
Cn1c(SCC(=O)O)nc2ccccc21	inactive: 118%
Cn1c(=O)n(Cc2ccccc2Cl)c(=O)c2c1nc1n2CCN1c1ccccc1	inactive: 85%
COc1cccc(CNC(=O)CSc2cc(C)[nH]c(=O)n2)c1	inactive: 69%
Cc1c(Cl)cccc1NC(=O)CSc1nc(=O)n(Cc2ccncc2)c2c1CCC2	inactive: 153%
Cc1ccc(C(=O)COC(=O)CCCC(=O)Nc2cc(C(F)(F)F)ccc2Cl)cc1C	inactive: 57%
Cc1oc(-c2ccc(C(=O)NCCCOC(C)C)cc2)nc1CS(=O)(=O)c1ccccc1	active: -6%
COc1ccc(C(=O)NCc2ccc3c(c2)CCN3C(C)=O)cc1OC	inactive: 73%
Cc1cc(Nc2ccccc2F)n2nc(Cc3ccc(Cl)cc3)nc2n1	inactive: 84%
COc1cc2c(cc1OC)n(CC(=O)Nc1ccc(C)cc1C)c(=O)n1nc(-c3ccccc3)nc21	inactive: 91%
O=C(NN1C(=O)C2C3C=CC(C3)C2C1=O)c1ccccc1 (stereo unspecified)	inactive: 110%
CCn1ccc2cc(S(=O)(=O)N3CCCN(C(=O)Nc4ccc(C)cc4Cl)CC3)ccc21	inactive: 63%

Structure (SMILES)	survival
Cc1cccc(NC(=O)CSc2ncc3c(n2)-c2cc(Cl)ccc2N(C)S3(=O)=O)c1C	inactive: 94%
CC(C)c1ccc(Nc2cc(C(=O)NCCCN(C)Cc3ccccc3)c3ccccc3n2)cc1	inactive: 159%
COC(=O)c1ccc(C2c3c(-c4ccc(Br)cc4)n[nH]c3C(=O)N2c2ccc(Cl)cc2)cc1 (stereo unspecified)	inactive: 75%
CC(=O)N1CCN(C(=O)C(=O)Nc2c3c(nn2-c2ccc(Cl)cc2)CSC3)CC1	active: -3%
CCOc1ccc2c(c1)c(=O)c(S(=O)(=O)c1ccc(CC)cc1)cn2CC	inactive: 75%
CCc1ccc(OCC(=O)Nc2cc3oc4ccccc4c3cc2OC)c(Br)c1	inactive: 102%
O=C(COc1ccccc1)Nc1c(C(=O)N2CCN(c3ccc(F)cc3)CC2)oc2ccccc12	inactive: 74%
CC1CCN(C(=O)CN2c3ccc(Br)cc3-c3ccccc3S2(=O)=O)CC1	inactive: 105%
COc1ccc(-c2nnc(SCC(=O)N3CCCCC3)o2)cc1	inactive: 72%
CCOc1ccccc1-c1noc(CSc2nnc(-c3ccncc3)n2-c2ccc(F)cc2)n1	inactive: 78%
Cc1c(C(=O)Nc2ccccc2Br)oc2ccccc12	inactive: 101%
CCOc1ccc(CCNC(=O)CCCc2nnc3n(CCCOC)c(=O)c4sccc4n23)cc1	inactive: 96%
O=C1CC(c2ccccc2)Cc2[nH]c(=O)c(C(=O)Nc3ccc(F)cc3)cc21 (stereo unspecified)	inactive: 75%
Cc1c(C(=O)N2CCCCCC2)c(S(=O)(=O)Nc2ccc(OC(F)(F)F)cc2)c(C)n1C	inactive: 132%
COCCn1c(Cc2ccccc2)nnc1SCC(=O)N(C)C	inactive: 100%
CCOC(=O)c1ccc(NC(=O)CSc2cc(-c3ccccc3)nc(C)n2)cc1	inactive: 71%
Nc1ccccc1NC(=O)CCC(=O)O	inactive: 97%
Cc1ccc(C)c(N(C)C(=O)CCNC(=O)Cn2cnc3ccccc3c2=O)c1	inactive: 70%
CC(C)CC(=O)Nc1nnc(S(=O)(=O)N(C)c2ccc(Cl)cc2)s1	inactive: 103%

Structure (SMILES)	survival
CN1CCN(S(=O)(=O)c2ccc(Br)c3ccccc23)CC1	inactive: 109%
O=C(CNC(=O)c1ccccc1Cl)OCc1cc(=O)n2nc(C3CC3)sc2n1	inactive: 74%
Cc1c(-c2ccc(Cl)cc2)c(=O)oc2c(CN3CCN(C)CC3)c(O)ccc12	inactive: 153%
CC1CCc2c(sc3nc(-c4cc5ccccc5oc4=O)nc(Cl)c23)C1 (stereo unspecified)	inactive: 58%
COc1cccc2sc(N(Cc3cccnc3)C(=O)C3CCCCC3)nc12	inactive: 93%
CCOC(=O)C1CCCN(C(=O)c2cc3c(Cl)nc4ccccc4c3s2)C1 (stereo unspecified)	inactive: 41%
CCC1Oc2ccc(C)cc2N(CC(=O)NCc2ccc(F)cc2)C1=O (stereo unspecified)	inactive: 82%
O=C(Nc1cccc(Cl)c1)C(Cc1ccccc1)n1cccc1 (stereo unspecified)	active: 8%
CCOc1ccc(C2c3c(-c4ccccc4O)n[nH]c3C(=O)N2Cc2cccnc2)cc1OC (stereo unspecified)	inactive: 89%
CC(C)c1nn2c(=O)cc(COC(=O)c3cccc(NC(=O)c4ccccc4F)c3)nc2s1	inactive: 73%
COc1cccc(CNC(=O)Cn2c(=O)cc(C(F)(F)F)c3c(C)nn(C)c32)c1OC	inactive: 73%
O=C(NCCS(=O)(=O)N1CCN(c2ccccc2F)CC1)c1ccccc1C(F)(F)F	inactive: 126%
CCN(CC)S(=O)(=O)c1ccc(Nc2ccc(-c3ccc4c(c3)OCCO4)nn2)cc1	inactive: 105%
CCOC(=O)c1ccc2c(c1)sc1nc(-c3ccc(OCC)cc3)cn12	inactive: 54%
CCN(CC)CCCNC(=O)c1c2c(nc3ccccc13)C(=O)N(C1CCCCC1)C2	inactive: 69%
Fc1ccc(F)c(Nc2c3c(nc4ccc(Cl)cc24)CCC3)c1	active: -1%
COc1ccc(N2C(=O)C(CC(=O)Nc3ccc(Cl)cc3)N(Cc3ccc4c(c3)OCO4)C2=O)cc1 (stereo unspecified)	inactive: 82%
Cc1cccc2sc(N(Cc3cccnc3)C(=O)CCS(=O)(=O)c3ccccc3)nc12	inactive: 82%
